About 540 (0.36%) of roughly 150,000 compounds showed an effect of 50% or more. The list shows a part of the results.
test system: Plasmodium falciparum; assay: Primary screen in NF54 nanoGlo assay, in single point, at 2uM, 72h; a lower Z score goes with more inhibition; assay type: functional, Erythrocyte; details: timepoint 72 hour

| SMILES | % Inhibition | Z score |
| --- | --- | --- |
| C[C@H](NC(=O)c1cc(COC(C)(C)C)on1)C1CC1 | 5% | -0.67 |
| COc1ccc(CN2CC[C@H](c3nnc(-c4ccncc4)o3)C2)cc1 | -2% | 0.34 |
| CCOC(=O)C1CCN(C(=O)c2c(-c3ccccc3)nnc3ccc(C)cc23)CC1 | 1% | -0.13 |
| O[C@@]1(CNc2nc3cc(F)ccc3o2)CCOC1 | 1% | -0.14 |
| CN(Cc1cnn(C)c1)C(=O)C1CC(O)CN1C(=O)COc1ccccc1 (stereo not drawn) | 1% | -0.13 |
| CO[C@@H]1CC[C@@]2(OC)CCN(C(=O)c3cccc(-c4nc[nH]n4)c3)[C@H]2C1 | 3% | -0.37 |
| CNC(=O)c1ccc(N2CC3CC=CCC3C2)nn1 (stereo not drawn) | 12% | -1.37 |
| CS(=O)(=O)N1CCC[C@H](CN2CCN(c3ccccc3F)CC2)C1 | -18% | 2.12 |
| O=C(c1oc2ccccc2c1Cn1cccn1)N1CC(CF)C1 | 31% | -3 |
| CCOc1ccc(C(=O)N2C[C@H]3COCC[C@@]3(O)[C@@H]3COCC[C@@H]32)cc1 | -24% | 2.39 |
| COCCCCC(=O)N1CC(C)N(C(=O)OC(C)(C)C)C(C)C1 (stereo not drawn) | 2% | -0.29 |
| Cn1c(=O)c(-c2noc(C(=O)NCCN3CCOCC3)n2)nn(-c2ccccc2)c1=O | 1% | -0.26 |
| Cn1cccc1[C@@H]1CCCN1Cc1cc(=O)n(C)c(=O)n1C | -12% | 1.57 |
| Cc1cc(Cl)cc(Cl)c1CNC(=O)c1cncn1-c1cccc(-c2cccc(OC(F)(F)F)c2)c1 | 2% | -0.23 |
| O=S(=O)(NCC[C@H](O)c1ccco1)C1CC1 | -19% | 2.77 |
| CC(=O)c1cn(C[C@H]2CCOC2)c(=O)n(C)c1=O | -12% | 1.32 |
| CC1CCN(C(=O)Nc2ccc3snnc3c2)CC1 | -42% | 4.98 |
| Cn1ncn(CC(=O)Nc2ccccc2Cl)c1=O | -12% | 2.41 |
| Cc1nc(CCC(=O)N2CC[C@H](CC(C)C)C2)n[nH]1 | -3% | 0.36 |
| CCC(=O)N(CC(=O)N(Cc1ccc(F)cc1)Cc1ccc(C)s1)[C@@H](C)CC | -2% | 0.24 |
| CN(Cc1noc(-c2ccccc2)n1)C[C@H]1CCS(=O)(=O)C1 | -3% | 0.43 |

| SMILES | % Inhibition | Z score |
| --- | --- | --- |
| O=C([C@@H]1CN(S(=O)(=O)c2ccccc2Cl)CCO1)N1CCC(c2nc3cc(Cl)ccc3s2)CC1 | -4% | 0.66 |
| C[C@H]1CN(CC(=O)Nc2ccc(Cl)cc2Cl)Cc2c[nH]nc21 | -7% | 0.72 |
| CC(C)(C)n1cc(CN2CC(=O)Nc3ccccc3C2)nn1 | 21% | -2.41 |
| CC[C@H](C)N(C)S(=O)(=O)c1ccc(OCC(F)(F)F)nc1 | -13% | 1.47 |
| CC(C)Cn1ncc2[nH]c(-c3cccs3)nc21 | -3% | 0.39 |
| CO[C@@](F)(C(=O)Nc1ccccc1C(=O)O)C(F)(F)F | -7% | 0.96 |
| Cn1cnc2c1CCN(Cc1coc(-c3ccccc3)n1)C2 | -14% | 1.29 |
| CC(=O)c1ccc(F)cc1NS(=O)(=O)N(C)C | -8% | 0.95 |
| c1cc2occc2c(N2CCC(C3OCCO3)CC2)n1 | 26% | -2.96 |
| CN(Cc1cc(-c2ccccn2)no1)S(=O)(=O)c1cn(C)c(=O)n(C)c1=O | -13% | 2.52 |
| O=S(=O)(Nc1nc2n(n1)CCCC2)c1ccsc1 | 7% | -1.26 |
| O=C(NCc1ccc2c(c1)OCO2)c1nn[nH]c1Nc1cccc(F)c1 | -20% | 2.23 |
| Cc1nn(CC(F)F)cc1-c1nc([C@H]2CCc3ccccc32)no1 | 3% | -0.67 |
| Cc1ccc(-c2cn(CC(=O)N(C)c3ccccc3)nc2N2CCOCC2)cc1 | -11% | 1.3 |
| CNC(=O)NC(=O)CCN(C[C@H](O)c1ccccc1)CC(C)(C)C | -4% | 0.79 |
| COc1ccc(C2(NCc3cnn(CC(F)F)c3)CCOCC2)cc1F | -13% | 1.67 |
| C[C@@H](CNC(=O)CS(=O)(=O)C(C)(C)C)c1nc2ccccc2o1 | -16% | 2.16 |
| Cc1cc(C)c(CN2CCC(n3nccc3NC(=O)[C@H]3CCOC3)CC2)cc1C | 0% | 0.01 |
| NC(=NCCCOCc1ccco1)NC1CCCCC1 | -2% | 0.23 |
| Cc1occc1CN(C)C(=O)Nc1nc(C2CCC2)cs1 | 0% | -0.02 |
| Cc1ccc2nc(CN3CCN(C(=O)NC[C@H]4CCCO4)CC3)oc2c1 | -15% | 1.36 |

| SMILES | % Inhibition | Z score |
| --- | --- | --- |
| Cc1cnc(C(=O)N2CCN(Cc3ccccc3)[C@@H]3CS(=O)(=O)C[C@@H]32)cn1 | 1% | -0.16 |
| O=C(c1ccc(-n2cnnn2)cc1)N1CCOc2ccc(CN3CCN(CCO)CC3)cc2C1 | -5% | 0.57 |
| Cc1cc(C(=O)N2CCN(C3CCCCC3)CC2)c2c(C)nn(-c3cccc(Cl)c3C)c2n1 | -17% | 1.74 |
| Cc1c(NC(=O)N[C@H]2[C@H](c3ccccc3)C2(C)C)nnn1C | 0% | 0.01 |
| O=C1c2ccccc2N[C@H](c2cnc(C3CCC3)s2)N1CCO | -8% | 1.21 |
| O=C(c1ccc2ncccc2c1)N1CCC(Cc2ccc(CO)cc2)CC1 | -2% | 0.41 |
| OC[C@H]1Cc2ccccc2N1Cc1cscn1 | -11% | 1.48 |
| C[C@H]1CN(C(=O)C2(C)CCCCC2)c2ccccc21 | -1% | 0.25 |
| COc1cccc(F)c1-c1nc2c([nH]1)c(C)nn2[C@@H](C)C1CC1 | -8% | 1.14 |
| c1ccc(CN(Cc2cc[nH]n2)c2nc(-c3cccnc3)nc3c2CCC3)cc1 | -11% | 1.62 |
| CC(C)OCCCN1C(=O)CC[C@H]1c1c[nH]c2ccccc12 | -18% | 2.08 |
| O=C(c1ccon1)N1CCCc2c(Br)cccc2C1 | -3% | 0.28 |
| Cc1nn(C)c2nc(N3CCN(Cc4ccco4)CC3)sc12 | -15% | 2.27 |
| O=C(Nc1csc(-c2ccncc2)n1)[C@H]1CCCOC1 | -6% | 0.96 |
| Cc1cc(C)cc(Nc2cc(C(=O)Nc3ccccc3)ccn2)c1 | -5% | 0.69 |
| CN1[C@@H](CO)C[C@@H](CNCc2cccn2-c2nccs2)[C@H]1c1ccccc1F | -8% | 1.23 |
| COc1cc(OC2CC2)ccc1C(=O)N(C)CC1CCN(C)CC1 | 13% | -1.69 |
| Cc1cncnc1C1CCN(C(=O)CC[C@H](C)N2CCOCC2)CC1 | 1% | -0.24 |
| Cc1ccc(N2CCCC2)c(C(=O)N2CCCN(CC(N)=O)CC2)c1 | 2% | -0.43 |
| O=C(NC1CCCCCCC1)c1cccc(-n2nnc3cccnc32)c1 | -11% | 2.24 |
| COc1cccc(CNC(=O)c2cc(S(=O)(=O)N3CCCCCC3)cn2C)c1 | -14% | 1.78 |

| SMILES | % Inhibition | Z score |
| --- | --- | --- |
| C[C@@H](CCc1ccccc1)n1cnc2snnc2c1=O | 5% | -0.65 |
| Cc1ccc(NS(=O)(=O)c2cc(-c3nnc(C(=O)N4CCCCC4)o3)sc2C)c(C)c1 | -11% | 1.64 |
| CCOC(=O)c1cc(NC(=O)N(C)[C@@H](C)CC(=O)NC)ccc1Cl | -5% | 0.62 |
| CCc1nnc(N2CCc3ccccc32)nc1CC | -5% | 0.97 |
| CC(C)OCCCNC(=O)[C@H]1CCCN(c2nc3ncccc3n3cccc23)C1 | -13% | 1.46 |
| COCCN(CCOC)c1cc(C#N)cc(C)n1 | -2% | 0.19 |
| Cc1ncc2c(n1)CCN(Cc1coc(-c3ccccc3)n1)C2 | -5% | 0.95 |
| O=C(CCn1nc2ccccn2c1=O)Nc1cccnc1O | -1% | 0.14 |
| CC(C)n1ccnc1CNC(=O)c1ccc2c(c1)OCCO2 | 0% | 0.05 |
| COCC(=O)N1C[C@@H]2CCN(Cc3cccc(C#N)c3)C[C@]2(CO)C1 | 1% | -0.09 |
| CCc1nnsc1C(=O)NCCCOCC(C)C | -11% | 1.33 |
| O=C(Nc1ccc2nscc2c1)[C@@H]1CCCCO1 | 0% | 0 |
| Cc1cc(-c2ccc(C(=O)N3CCC[C@H](C(=O)N4CCCC4)C3)cc2)ccn1 | -7% | 1.24 |
| CCn1nc(C)c(CNc2cnc3c(c2)c(NC(=O)[C@@H]2CCCO2)c(C(=O)OC)n3CCc2ccccc2)c1C | 24% | -3.17 |
| O=c1c2ccccc2nc(-c2cccc(F)c2)n1Cc1ccc(Cl)cc1 | -17% | 1.57 |
| CCCNC(=O)N1CCC(c2nnc(CN3CCCCCC3)n2C)CC1 | 0% | -0.07 |
| COc1ccc(C(=O)N[C@H](C(=O)NC(C)C)C2CCN(C(=O)c3ccccc3F)CC2)cc1 | -15% | 2.14 |
| C[C@H](C(=O)N[C@H]1CC[C@H](NC(=O)C2CCCc3[nH]cnc32)CC1)c1ccccc1 (stereo partly drawn) | 0% | 0.06 |
| COc1ccccc1CCNC(=O)Cn1c2ccccc2c2cnn(C)c(=O)c21 | 17% | -1.75 |
| Cn1cc(CNc2ccccc2CN2C(=O)CCC2=O)cn1 | 10% | -1.29 |
| CC(C)Cc1nc(CN2CCc3nocc3C2)no1 | -6% | 1.24 |

Source: ChEMBL document CHEMBL4888484, “Replenishing the malaria drug discovery pipeline: Screening and hit evaluation of the MMV Hit Generation Library 1 (HGL1) against asexual blood stage Plasmodium falciparum ,using a nano luciferase reporter read-out” (2022)
